The values below come from PubChem BioAssay AID1508623 (National Center for Advancing Translational Sciences (NCATS), 2021).

Each structure is given as a SMILES string. Screen size: about 48,000 compounds; about 450 (0.94%) were called active. Roughly 19% stayed inconclusive and do not appear here. The call rests on the fitted dose curve; in most records, active means well fitted inhibition curve with a large enough effect; inconclusive means small, poorly fitted or top-dose-only effect; inactive means no such curve, though single readings can be large or run the other way. This is one part of the list.

The test can be described thus: Primary qHTS for Identification of Small Molecule Inhibitors of Huntingtin Promoter Activity. Further: nearly all actives have a fitted effect of over 50% in size. The following applies: HEK293 HTT promoter firefly luciferase reporter (activity 0% = vehicle and -100% = no light), 24 h; series mostly up to 57.5 µM; activity change, negative = inhibition: at the top concentration. An outline of the steps:
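HEK293 cells carrying firefly luciferase reporters were seeded at 2,500 per well in Opti-MEM and cultured for 24 h. They were then treated with compounds at up to 57.5 uM final for 24 h at 37 degrees C before Dual-Glo luminescence readout.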
For `CC(C)CCn1c(=O)c2sccc2n2c(CCCC(=O)NC(C)c3ccccc3)nnc12` (stereo unspecified), the “activity change, negative = inhibition” value is inactive: -12.3%.
The value for `CC(=O)c1cccc(NC(=O)CSc2nc3c(=O)n(C)c(=O)n(C)c3n2C)c1` was inactive: 3.71%; that for `Cn1cc(CNCC2CCN(c3ncc(C(=O)NO)cn3)CC2)c2ccccc21` was inactive: 242%; that for `Cc1cccc(OCC(=O)Nc2ccccc2C(=O)OCc2cc(=O)n3nc(C4CC4)sc3n2)c1` was inactive: -9.26%.
The value for `Cc1ccc(CCNC(=O)c2cc3c(=O)n(C)c4ccccc4c3n2C)cc1` was inactive: -5.86%; that for `CC(=O)[C@H]1CC[C@H]2[C@@H]3CCC4=CC(=O)CC[C@]4(C)[C@H]3CC[C@]12C` was inactive: -25.7%.
Consider `Cc1cccc(N2CCN(c3nc4ccccc4c4nc(-c5cccnc5)nn34)CC2)c1C`, for which the “activity change, negative = inhibition” value was inactive: -6.96%.
For the compound `CCn1cc(C(=O)Nc2ccc(C(C)C)cc2)c2cc(OC)c(OC)cc2c1=O`, the “activity change, negative = inhibition” value was inactive: -25.1%.
The value for `CCc1cccc(N2C(=O)N(Cc3c(F)cccc3Cl)c3ccccc3S2(=O)=O)c1` was inactive: -9.52%; that for `Cc1ccc2cc3cc(C(=O)N(C)c4ccccc4C)oc3nc2c1` was inactive: 40.7%.
The value for `CCOC(=O)c1ccc(NC(=O)c2c(NCc3cc(OC)ccc3OC)sc3c2CCC3)cc1` was inactive: 1.68%; that for `COc1ccc(-c2noc(CSc3nnc(-c4ccccc4)n3C)n2)cc1` was inactive: -14.8%; that for `CC(C)OCCCNC(=O)c1nn(C)c2c1CSc1ccccc1-2` was inactive: -1.14%.
In the case of `CCCOC(=O)c1ccc(Nc2c(C(=O)OCC)cnc3c(C)cc(Cl)cc23)cc1`, the “activity change, negative = inhibition” value was inactive: -13.8%.
The value for `COc1ccc(C)cc1NC(=O)CN1CCN(S(=O)(=O)c2ccc(Br)cc2)CC1` was inactive: -10.3%; that for `COc1ccc(NC(=O)C2CCC(CNS(=O)(=O)c3cccs3)CC2)cc1OC` (stereo unspecified) was inactive: -2.02%.
The value for `Clc1ccccc1-c1nnc(-c2ccccc2CNc2ccccc2)o1` was inactive: 14.4%; that for `COc1ccccc1CNC(=O)c1cc2ccc3ccc(C)[nH]c3c2n1` was inactive: -28.2%; that for `CCN1CCc2c(sc(-n3cccc3)c2C(C)NC(=O)Nc2ccccc2C)C1` (stereo unspecified) was inactive: -24.7%.
The value for `Cc1cccc(CC(=O)Nc2cccc(-c3nc4cccnc4s3)c2)c1` was inactive: 19.9%; that for `OC(CN1CCC(Cc2ccc(F)cc2)CC1)c1ccc(Cl)cc1` (stereo unspecified) was “inactive”; that for `Cc1cccc(Oc2ccc(NC(=O)CCC(=O)OCC(=O)c3ccc(Br)cc3)cc2)c1C` was inactive: -16.3%.
With `COc1cccc(C(C(=O)NCc2ccccc2)N(C(=O)Cn2nnc3ccccc32)c2cccc(C(C)=O)c2)c1` (stereo unspecified), the “activity change, negative = inhibition” value is inactive: -8.49%.
With `COc1cc(C2c3c(-c4ccccc4O)n[nH]c3C(=O)N2CCO)ccc1OCC(C)C` (stereo unspecified), the “activity change, negative = inhibition” value was inactive: -21.3%.
The value for `COc1ccc(Cc2c(C)nn(-c3nc(C)c(C(=O)Nc4ccc(C)cc4C)s3)c2C)cc1` was inactive: -5.51%; that for `CCCCc1ccc(NC(=O)CSc2nnc3[nH]c(=O)cc(C)n23)cc1` was inactive: 0.414%.
The value for `CCCN1CCN(CCCNC(=O)c2ccc(CS(=O)c3ccc(OC)cc3)o2)CC1` (stereo unspecified) was inactive: 16%; that for `CCN(CC)CCNC(=O)c1cc2c(=O)oc3ccc(C)cc3c2s1` was inactive: -5.98%.
The value for `CCCN(CCC)C(=O)CSc1nnc2cc(C)c3ccccc3n12` was inactive: -6.76%.
For the compound `Cc1ccc(NC(=O)Cn2nnc3sc4c(c3c2=O)CCCC4)c(C)c1`, the “activity change, negative = inhibition” value is inactive: -1.16%.
The value for `Cc1cc(C)c(Cn2c3ccccc3c3cnn(CC(=O)NCC(C)c4ccccc4)c(=O)c32)c(C)c1` (stereo unspecified) was inactive: -12%.
Regarding `CCn1cc(C(=O)NCc2ccc(F)cc2)c(=O)c2cc(S(=O)(=O)N(C)C)ccc21`, the “activity change, negative = inhibition” value is inactive: -20.3%.
For `COc1cc(OC)c(NC(=O)CCNS(=O)(=O)c2ccc3c(c2)oc(=O)n3C)cc1Cl`, the “activity change, negative = inhibition” value is inactive: 22.3%.
The value for `COc1ccc(-n2c(CCC(=O)O)ccc2-c2ccccc2)c(OC)c1` was inactive: 2.81%; that for `Cc1cc(Cl)ccc1NC(=O)c1cc2ccccn2n1` was inactive: 1.2%; that for `Cc1ccc(CNC(=O)CSC2=Nc3ccccc3C3=NC(C)C(=O)N23)cc1` (stereo unspecified) was inactive: -30%.
Turning to `CC(=O)Nc1cccc(NC(=O)C(=O)NCCc2csc3nc(-c4ccccc4F)nn23)c1`, the “activity change, negative = inhibition” value is inactive: 0%.
The value for `CCOC(=O)c1ccccc1NC(=O)c1nn(C)c2c1COc1ccccc1-2` was inactive: -16.7%; that for `CC(C)CCNC(=O)c1cn(C)c2ccc(S(=O)(=O)N3CCOCC3)cc2c1=O` was inactive: -21.6% [at 11.5 µM]; that for `COc1ccccc1N1CCN(S(=O)(=O)c2ccc(-c3cnc(C4CC4)o3)cc2)CC1` was inactive: -9.11%.
The value for `CCc1cccc(NC(=O)CCS(=O)(=O)c2cc3c4c(c2)CCN4C(=O)CC3)c1` was inactive: -10.9%; that for `Cc1cccc(C(=O)Nc2cccc(OCc3cc(=O)n4ccccc4n3)c2)c1` was inactive: 12.8%.
The value for `COc1cc2c(cc1OC)C(COc1ccccc1OC)N(C(=O)c1ccccc1OC)CC2` (stereo unspecified) was inactive: -24.8%; that for `Cc1cc(C)c(NC(=O)Cn2c(=O)n(Cc3ccccc3)c(=O)c3c(C)c(C(=O)N(C)C)sc32)c(C)c1` was inactive: -22.6%; that for `COc1cc2c(=O)c(S(=O)(=O)c3ccccc3)cn(CC(=O)Nc3ccccc3C)c2cc1OC` was inactive: -14.8%.
Take `COc1cc(OC)c(NC(=O)c2c3c(nc4ccccc24)C(=O)N(C2CCCCC2)C3)cc1Cl`: the “activity change, negative = inhibition” value was inactive: -28.3%.
The value for `CCOc1ccccc1NC(=O)CN1CCN(S(=O)(=O)c2ccc(Br)cc2)CC1` was inactive: -13.4%; that for `CCC1CCCCN1Cc1cn2c(-c3ccc(Br)cc3)nnc2s1` (stereo unspecified) was inactive: 5.37%.
The value for `CCS(=O)(=O)N1CCc2cc(C(=O)Nc3ccc(OC)cc3OC)ccc21` was inactive: -11.9%; that for `CC(=O)c1cccc(NC(=O)c2nc(-c3ccccc3)n(-c3cccc(C)c3)n2)c1` was inactive: 6.82%.
Regarding `COc1c(Cl)cc(Cl)cc1CNCCSc1nnnn1C`, the “activity change, negative = inhibition” value is inactive: -8.16%.
The value for `CCC(C)NC(=O)CSc1nc2cc3c(cc2c(=O)n1CCCCCC(=O)NCc1ccc(OC)cc1)OCO3` (stereo unspecified) was inactive: -10.9%.
The value for `CCOc1ccc(C(=O)N2CCN(Cc3cc(=O)n4nc(-c5cccc(OC)c5)sc4n3)CC2)cc1` was inactive: -12.3%.
The value for `CCOCCCNC(=O)C(c1ccc(Cl)cc1)N(Cc1ccc2c(c1)OCO2)C(=O)c1ccccc1O` (stereo unspecified) was inactive: -27.1%; that for `COc1ccc(-c2nc(S(=O)(=O)c3ccccc3)c(N3CCCCC3)o2)cc1` was inactive: -1.91%; that for `CCN(Cc1nc(-c2ccc(OC)cc2)oc1C)S(=O)(=O)c1ccc(Cl)cc1` was inactive: 1.52%.
In the case of `COc1ccc(N2CCN(C(=O)c3cccn4c(=O)c5ccc(Cl)cc5nc34)CC2)cc1`, the “activity change, negative = inhibition” value is inactive: -0.663%.
As to `Cc1ccccc1CNCCCSc1nnnn1-c1ccccc1`, the “activity change, negative = inhibition” value was inactive: 1.33%.
The value for `Cc1ccc2oc(=O)c3cnn(CC(=O)Nc4ccc(Br)cc4C)c3c2c1` was inactive: 1.85%; that for `CCc1ccccc1NC(=O)C(=O)c1cc(C)n(-c2ccccc2F)c1C` was inactive: -6.74%.
The value for `O=C(c1ccco1)N(Cc1cccnc1)c1nc2c(F)cccc2s1` was inactive: -32.8%.
